The source of these data is paper PMC3688683, “The N-Terminal Domains of Vps3 and Vps8 Are Critical for Localization and Function of the CORVET Tethering Complex on Endosomes” (PLoS ONE, 2013).

Common to all, as to test: co-IP; small-scale TAP purification: C-terminally TAP-tagged Vps8 or Vps3 (full-length or truncated) captured from yeast lysate (50 mM HEPES/KOH pH 7.4, 300 mM NaCl, 0.15% NP-40, 2 mM MgCl2, 1 mM DTT) on IgG beads, 1.5 h at 4°C; eluted with glycine pH 2.5 or TEV protease; Western blot with anti-Cbp, anti-HA, anti-Vps11; also with overproduced Vps8ΔN and from vps21Δ and vps21Δ ypt52Δ ypt53Δ ypt7Δ strains
For orientation: In western blotting, separated proteins are transferred to a membrane and probed.

The target of assay [1] is T1, Vps3ΔN-TAP (C-terminal domain of Vps3, from residue 427, C-terminal TAP tag) (yeast (genomic locus of BY4741/BY4733 strains)) (UniProt P23643).
T1 sequence: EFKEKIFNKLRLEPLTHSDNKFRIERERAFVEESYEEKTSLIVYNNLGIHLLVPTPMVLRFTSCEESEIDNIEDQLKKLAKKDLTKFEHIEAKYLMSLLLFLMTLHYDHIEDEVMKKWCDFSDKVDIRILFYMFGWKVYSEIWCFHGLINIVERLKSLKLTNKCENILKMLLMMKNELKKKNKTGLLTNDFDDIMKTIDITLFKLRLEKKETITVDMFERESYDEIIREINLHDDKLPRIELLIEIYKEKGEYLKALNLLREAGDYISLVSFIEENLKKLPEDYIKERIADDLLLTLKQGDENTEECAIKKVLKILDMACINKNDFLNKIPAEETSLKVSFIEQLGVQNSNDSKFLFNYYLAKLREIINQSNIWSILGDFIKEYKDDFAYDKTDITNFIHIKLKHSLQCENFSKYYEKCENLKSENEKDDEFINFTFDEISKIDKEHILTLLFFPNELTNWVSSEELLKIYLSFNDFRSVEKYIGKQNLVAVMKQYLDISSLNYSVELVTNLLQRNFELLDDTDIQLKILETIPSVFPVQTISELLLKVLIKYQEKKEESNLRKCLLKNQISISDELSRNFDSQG

Assay [2] has as its target T2, Vps3-TAP (full-length Vps3, C-terminal TAP tag) (yeast (genomic locus of BY4741/BY4733 strains)) (UniProt P23643).
T2 sequence: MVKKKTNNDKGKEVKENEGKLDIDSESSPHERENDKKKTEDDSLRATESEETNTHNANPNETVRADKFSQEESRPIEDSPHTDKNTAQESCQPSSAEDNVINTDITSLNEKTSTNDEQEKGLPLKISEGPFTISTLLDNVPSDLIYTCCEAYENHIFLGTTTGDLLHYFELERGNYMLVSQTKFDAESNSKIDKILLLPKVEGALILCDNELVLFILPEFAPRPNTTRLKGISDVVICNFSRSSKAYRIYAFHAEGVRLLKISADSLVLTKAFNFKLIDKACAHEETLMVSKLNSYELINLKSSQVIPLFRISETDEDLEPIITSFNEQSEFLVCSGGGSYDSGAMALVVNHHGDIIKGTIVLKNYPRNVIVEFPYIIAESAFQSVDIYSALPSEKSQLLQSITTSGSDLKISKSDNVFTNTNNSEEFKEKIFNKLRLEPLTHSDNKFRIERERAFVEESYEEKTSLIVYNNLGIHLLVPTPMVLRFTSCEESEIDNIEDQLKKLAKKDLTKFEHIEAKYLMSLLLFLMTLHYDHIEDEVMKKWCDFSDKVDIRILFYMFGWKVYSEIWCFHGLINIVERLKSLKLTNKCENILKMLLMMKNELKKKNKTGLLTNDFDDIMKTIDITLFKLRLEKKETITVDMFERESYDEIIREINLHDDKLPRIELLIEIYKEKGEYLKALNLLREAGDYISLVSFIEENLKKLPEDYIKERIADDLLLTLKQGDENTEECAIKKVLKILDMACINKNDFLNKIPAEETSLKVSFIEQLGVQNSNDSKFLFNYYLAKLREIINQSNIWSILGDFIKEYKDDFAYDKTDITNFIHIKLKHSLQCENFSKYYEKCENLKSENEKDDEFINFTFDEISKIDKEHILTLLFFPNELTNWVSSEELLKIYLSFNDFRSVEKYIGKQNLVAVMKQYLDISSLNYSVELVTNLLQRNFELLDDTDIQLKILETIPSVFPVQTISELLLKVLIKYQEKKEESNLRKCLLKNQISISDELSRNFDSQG

For assay [3], the target named is T3, Vps3ΔC-TAP (N-terminal domain of Vps3, up to residue 426, C-terminal TAP tag) (yeast (genomic locus of BY4733 strains)) (UniProt P23643).
T3 sequence: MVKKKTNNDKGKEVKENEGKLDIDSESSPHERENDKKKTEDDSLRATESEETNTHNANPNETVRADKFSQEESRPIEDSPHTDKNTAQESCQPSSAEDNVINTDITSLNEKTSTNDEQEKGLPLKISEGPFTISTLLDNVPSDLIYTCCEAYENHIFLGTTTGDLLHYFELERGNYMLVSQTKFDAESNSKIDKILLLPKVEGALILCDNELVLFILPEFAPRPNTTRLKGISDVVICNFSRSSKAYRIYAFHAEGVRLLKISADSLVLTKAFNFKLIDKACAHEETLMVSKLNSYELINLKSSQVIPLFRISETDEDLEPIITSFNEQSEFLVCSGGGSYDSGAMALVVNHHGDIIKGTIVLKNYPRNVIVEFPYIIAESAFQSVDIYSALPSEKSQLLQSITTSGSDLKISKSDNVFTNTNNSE

These are yes or no findings as the source states them, for the method shown. Binding seen in cells or lysates may run through a third protein. Some binding calls cover weakened binding; strength is not graded here. Tags and fused reporters may be left off the sequences shown.

B1: Vps8-3HA (full-length Vps8, C-terminal 3xHA tag) (protein, UniProt P39702 1-1274)
chain: MEQNGLDHDSRSSIDTTINDTQKTFLEFRSYTQLSEKLASSSSYTAPPLNEDGPKGVASAVSQGSESVVSWTTLTHVYSILGAYGGPTCLYPTATYFLMGTSKGCVLIFNYNEHLQTILVPTLSEDPSIHSIRSPVKSIVICSDGTHVAASYETGNICIWNLNVGYRVKPTSEPTNGMTPTPALPAVLHIDDHVNKEITGLDFFGARHTALIVSDRTGKVSLYNGYRRGFWQLVYNSKKILDVNSSKEKLIRSKLSPLISREKISTNLLSVLTTTHFALILLSPHVSLMFQETVEPSVQNSLVVNSSISWTQNCSRVAYSVNNKISVISISSSDFNVQSASHSPEFAESILSIQWIDQLLLGVLTISHQFLVLHPQHDFKILLRLDFLIHDLMIPPNKYFVISRRSFYLLTNYSFKIGKFVSWSDITLRHILKGDYLGALEFIESLLQPYCPLANLLKLDNNTEERTKQLMEPFYNLSLAALRFLIKKDNADYNRVYQLLMVVVRVLQQSSKKLDSIPSLDVFLEQGLEFFELKDNAVYFEVVANIVAQGSVTSISPVLFRSIIDYYAKEENLKVIEDLIIMLNPTTLDVDLAVKLCQKYNLFDLLIYIWNKIFDDYQTPVVDLIYRISNQSEKCVIFNGPQVPPETTIFDYVTYILTGRQYPQNLSISPSDKCSKIQRELSAFIFSGFSIKWPSNSNHKLYICENPEEEPAFPYFHLLLKSNPSRFLAMLNEVFEASLFNDDNDMVASVGEAELVSRQYVIDLLLDAMKDTGNSDNIRVLVAIFIATSISKYPQFIKVSNQALDCVVNTICSSRVQGIYEISQIALESLLPYYHSRTTENFILELKEKNFNKVLFHIYKSENKYASALSLILETKDIEKEYNTDIVSITDYILKKCPPGSLECGKVTEVIETNFDLLLSRIGIEKCVTIFSDFDYNLHQEILEVKNEETQQKYLDKLFSTPNINNKVDKRLRNLHIELNCKYKSKREMILWLNGTVLSNAESLQILDLLNQDSNFEAAAIIHERLESFNLAVRDLLSFIEQCLNEGKTNISTLLESLRRAFDDCNSAGTEKKSCWILLITFLITLYGKYPSHDERKDLCNKLLQEAFLGLVRSKSSSQKDSGGEFWEIMSSVLEHQDVILMKVQDLKQLLLNVFNTYKLERSLSELIQKIIEDSSQDLVQQYRKFLSEGWSIHTDDCEICGKKIWGAGLDPLLFLAWENVQRHQDMISVDLKTPLVIFKCHHGFHQTCLENLAQKPDEYSCLICQTESNPKIV
With B1, the binding result in assay [1] was “binds”; in assay [2], “binds”; in assay [3], “no binding”.
